Consider 4 compounds from PMC2963127, “Genotoxicity Revaluation of Three Commercial Nitroheterocyclic Drugs: Nifurtimox, Benznidazole, and Metronidazole” (Journal of Parasitology Research, 2009).

Like-named read-outs stand apart in the source and are kept apart here.

Data set [1] deals with Salmonella typhimurium TA100NR. The following applies: for Revertant/plate: TA100NR without S9.
For data set [2], the system named is Salmonella typhimurium TA98NR. The following applies: for Revertant/plate: TA98NR without S9.

On to `CCN(CC)CCNc1ccc(CO)c2sc3ccccc3c(=O)c12` [HYC, hycantone], for which the Revertant/plate in data set [1] (positive control 75 μg/plate) stood at 785 ± 97; in data set [2] (positive control 75 μg/plate) it was 833 ± 71.
In data set [2] (15 μg/plate), `O=[N+]([O-])c1ccc2c(c1)Cc1ccccc1-2` [2-NF, 2-nitrofluorene] gave a Revertant/plate of 19 ± 4.
As for `NC(=O)C(=Cc1ccc([N+](=O)[O-])o1)c1ccco1` [FYFA, 2-(2-furyl)-3-(5-nitro-2-furyl)acrylamide], the Revertant/plate turned out to be 247 ± 34 in data set [1] (20 ng/plate) and 25 ± 4 in data set [2] (20 ng/plate).
For `O=C(Cn1ccnc1[N+](=O)[O-])NCc1ccccc1` [BNZ, N-benzyl-2-(2-nitroimidazol-1-yl)acetamide], the Revertants in data set [1] (TA100NR -S9, 5 µg/plate) amounted to 247± 19; in data set [1] (TA100NR -S9, 10 µg/plate), 249± 6; in data set [1] (TA100NR -S9, 20 µg/plate), 233± 6; in data set [1] (TA100NR -S9, 40 µg/plate), 318± 9; in data set [1] (TA100NR -S9, 80 µg/plate) it was 343± 26; in data set [2] (TA98NR -S9, 5 µg/plate), 24± 3. Moreover, the Revertants in data set [2] (TA98NR -S9, 10 µg/plate) is 28± 2; in data set [2] (TA98NR -S9, 20 µg/plate), 23± 3; in data set [2] (TA98NR -S9, 40 µg/plate), 24± 5; in data set [2] (TA98NR -S9, 80 µg/plate), 27± 3; in data set [2] (TA98NR -S9, 125 µg/plate) it was 30± 3; in data set [2] (TA98NR -S9, 250 µg/plate) it was 46± 9. The same compound came in with a Revertants in data set [2] (TA98NR -S9, 500 µg/plate) of 54± 11.
